In PubChem BioAssay AID463173 (ICCB-Longwood Screening Facility, Harvard Medical School, 2010):
Among all 52,000 compounds or so, about 4,300 (8.3%) were called active. Cut-off read from the data, not from the text of the source: active = survival mostly below about 52% (no sharp cut-off); inactive = mostly above about 56%. The list shows a part of the results.

tested on: DeltatarO mutant; test: S. aureus survival, RN4220 and DeltatarO strains – OD600, teichoic acid synthesis inhibitors, primary screen (AID 463173); details: S. aureus RN4220 wild type/DeltatarO growth, OD600, 18 h, stronger effect = lower value, screened at 18.75 µg/mL (by protocol)

| SMILES | survival |
| --- | --- |
| Cc1ccc(C(=O)N2CCCn3c2nc2ccccc23)cc1 | inactive: 70% |
| Cc1ccc(-c2noc(-c3nnn(-c4ccc(Br)cc4F)c3C)n2)cc1 | inactive: 83% |
| O=C(N1CCOCC1)N1CCN(Cc2ccccc2)CC1 | inactive: 103% |
| O=C(Nc1ccc(F)cc1)c1cc2cc3ccc(Cl)cc3nc2o1 | inactive: 84% |
| NC(=O)C1CCN(C(=O)CCSc2ccc(Cl)cc2)CC1 | inactive: 97% |
| COc1cc2c(cc1NC(=O)COc1ccc(Cl)cc1)oc1ccccc12 | active: 46% |
| CCC1Oc2ccccc2N(CC(=O)NCCc2ccc(OC)c(OC)c2)C1=O (stereo unspecified) | inactive: 115% |
| O=C(NCCc1ccccc1)c1cnc2sc(N3CCCCC3)nn2c1=O | inactive: 82% |
| O=C(O)CSc1nc2ccccc2c(=O)n1Cc1ccco1 | inactive: 99% |
| COc1cc(OC)c(NC(=O)N2CCc3cc(S(=O)(=O)N4CCC(C)CC4)ccc32)cc1Cl | inactive: 89% |
| O=C(c1cc2c(s1)-c1ccccc1OC2)N1CCN(c2ccc(F)cc2)CC1 | inactive: 59% |
| COc1ccc(CCNS(=O)(=O)c2ccc(N3CCCCS3(=O)=O)cc2)cc1 | inactive: 79% |
| COc1ccc(-n2ncc(C(=O)NCCN3CCOCC3)c2C2CCN(C(=O)OC(C)(C)C)CC2)cc1 | inactive: 119% |
| COc1ccc(OC)c(CCNC(=O)Cn2nc(C)n3c(cc4sccc43)c2=O)c1 | inactive: 99% |
| CCc1c(C)sc2c1CCN(C(=O)Nc1cc(C)ccc1C)C2c1ccc(OC)cc1 (stereo unspecified) | inactive: 83% |
| Cc1nc(-c2cccc(S(=O)(=O)N3CCC(C(=O)NCc4ccccc4Cl)CC3)c2)no1 | inactive: 82% |
| Cc1cc(C)cc(NC(=O)c2cc(S(=O)(=O)N3CCCC3)ccc2F)c1 | inactive: 92% |
| Cn1nc(-c2ccccc2F)c2cc(C(=O)NCc3cccc(Cl)c3)sc21 | active: 41% |
| Cc1ccc(C)c(NC(=O)c2nnn(Cc3ccc(F)cc3Cl)c2N)c1 | inactive: 71% |
| Cc1cccc(CSc2nnc(CCCCCN)o2)c1 | inactive: 75% |
| COc1ccc(CCNC(=O)CCS(=O)(=O)c2cc3c(cc2Cl)NC(=O)CO3)cc1OC | inactive: 90% |
| O=C(COc1ccccc1)Nc1nnc(SCc2cc(=O)n3cc(Cl)ccc3n2)s1 | inactive: 90% |
| CCc1nnc(SCC(=O)Nc2cccc(C(F)(F)F)c2)c2cc3oc(C)cc3n12 | inactive: 66% |

| SMILES | survival |
| --- | --- |
| COc1ccc(-c2noc(CSc3nnc(Cc4ccccc4)n3-c3cccc(C)c3)n2)cc1 | inactive: 69% |
| COc1ccc(/C=C/C(=O)Nc2ccc3nc4c(c(Nc5ccc(OC)c(OC)c5)c3c2)CCCC4)cc1 | inactive: 74% |
| CCCc1nn2cc(-c3ccc(C)c(C)c3)nc2s1 | inactive: 100% |
| CCOC(=O)Cc1c(C)nc2c(-c3ccc(Cl)cc3)c(C(F)(F)F)nn2c1C | inactive: 63% |
| c1ccc2c(c1)ncc1nncn12 | inactive: 79% |
| CC1CCC(NC(=O)Cn2ncc3c4ccccc4n(Cc4ccc(F)cc4)c3c2=O)CC1 (stereo unspecified) | inactive: 73% |
| O=c1[nH]c2ccc(NCc3ccc(-c4ccc(F)cc4)o3)cc2[nH]1 | inactive: 97% |
| Cc1ccc(Nc2ncc(C(=O)Nc3ccc(F)cc3F)c3ccccc23)cc1Cl | active: 37% |
| CC(=O)c1ccc(NC(=O)CSc2ccc3nnc(CCNS(=O)(=O)c4ccc(C)cc4)n3n2)cc1 | inactive: 67% |
| CCC1CCCCN1S(=O)(=O)c1cc2c(cc1C)NC(=O)CO2 (stereo unspecified) | inactive: 105% |
| Cc1ccc(CN(C(=O)COc2ccc([N+](=O)[O-])cc2)c2ccccn2)o1 | active: 62% |
| COc1ccc(CNC(=O)c2nn(C)c3c2CS(=O)(=O)c2ccccc2-3)cc1 | inactive: 69% |
| CC(=O)c1cccc(NC(=O)C2CCN(S(=O)(=O)c3ccccc3)CC2)c1 | inactive: 56% |
| CC(=O)N1CCc2cc(S(=O)(=O)NC(CC(C)C)C(=O)NCCc3cccc(C)c3)ccc21 (stereo unspecified) | inactive: 91% |
| CCOCCCNC(=O)c1ccc2c(=O)n(CCc3ccc(OC)c(OC)c3)c(=O)[nH]c2c1 | inactive: 78% |
| CCOc1ccccc1CNC(=O)CSc1nnc(C)c2c(C)n(-c3ccccc3)nc12 | inactive: 83% |
| Cc1oc(-c2ccccc2Cl)nc1CS(=O)(=O)CC(=O)NC(C)c1ccccc1 (stereo unspecified) | inactive: 63% |
| CCC(C(=O)Nc1ccccc1OC)n1c(C(=O)OC)cc2sc(Cl)cc21 (stereo unspecified) | active: -6% |
| Cc1ccc2onc(CNC(=O)NCc3ccccc3)c2c1 | inactive: 86% |
| CCc1ccc(OCC(=O)Nc2cc(-c3nc4cc(C)ccc4o3)ccc2C)cc1 | inactive: 65% |
| CC(=O)Nc1ccc(N2C(=O)CC(N3CCCCC3C)C2=O)cc1 (stereo unspecified) | inactive: 95% |
| CCCNC(=O)C1CCC(CNS(=O)(=O)c2ccc3c(c2)CC(C)N3C(C)=O)CC1 (stereo unspecified) | inactive: 99% |
| CN(Cc1ccc(F)cc1)S(=O)(=O)c1nnc(NC(=O)c2ccccc2)s1 | inactive: 102% |

| SMILES | survival |
| --- | --- |
| CC(C)N(C(=O)CSc1nnc(-c2ccc3c(c2)OCO3)n1C)C(C)C | inactive: 81% |
| Cc1ccc2oc(-c3cc(NC(=O)c4oc5ccccc5c4C)ccc3Cl)nc2c1 | inactive: 62% |
| O=C(COc1cc2oc(=O)c3c(c2cc1Cl)CCC3)N1CCCC1 | inactive: 65% |
| Cc1ccc2oc(=O)n(Cc3ccccc3Cl)c2c1 | active: -3% |
| CCOC(=O)c1c(C)[nH]c(C)c1S(=O)(=O)N1CCC(C(=O)Nc2ccc(C)c(N(C)C)c2)CC1 | inactive: 84% |
| CC(C)(C)OC(=O)N1CCC(c2c(C(=O)N3CCN(Cc4ccccc4)CC3)cnn2-c2ccc(Cl)cc2)CC1 | inactive: 82% |
| Cn1cc(C(=O)NCCc2ccccc2)c(=O)c2cc(S(=O)(=O)N3CCCCC3)ccc21 | inactive: 66% |
| CCc1ccc(N2C(=O)CN(S(=O)(=O)CC)CC2(C)C(=O)NC2CCCCC2)cc1 (stereo unspecified) | inactive: 84% |
| COc1ccc(-c2nc3n(c2NC(C)(C)C)CCN(C(=O)Cc2ccccc2F)C3)cc1 | inactive: 88% |
| Cc1cc(-c2ccc(C)c(S(=O)(=O)NCc3cccs3)c2)on1 | inactive: 72% |
| CCOc1ccc(Nc2ncnc3scc(-c4ccc(OC)cc4)c23)cc1 | inactive: 98% |
| Cc1ccc(C(=O)NCc2ccccc2)cc1NC(=O)c1nsc2ccccc12 | inactive: 84% |
| O=C1CCC(=O)c2oc3ccccc3c2N1 | inactive: 89% |
| Cc1c(NC(=O)CN2C(=O)c3ccccc3C2=O)c(=O)n(-c2ccccc2)n1C | inactive: 94% |
| CCC(c1nnnn1CCOC)N(Cc1cc2ccc(OC)cc2[nH]c1=O)C1CCCC1 (stereo unspecified) | inactive: 92% |
| CCS(=O)(=O)c1ncc(Cl)c(C(=O)NCc2ccccc2)n1 | inactive: 50% |
| O=C(CNC(=O)c1ccccc1)OCc1cc(=O)n2nc(C3CC3)sc2n1 | inactive: 67% |
| Cc1ccc(Nc2c(-c3ccc(C)o3)nc3cccc(C)n23)cc1 | inactive: 20% |
| CCC1CCCCN1C(=O)CCS(=O)(=O)c1cc2c(cc1C)NC(=O)CO2 (stereo unspecified) | inactive: 81% |
| O=c1c2oc3ccccc3c2n(Cc2ccc(Cl)cc2)c(=O)n1Cc1ccccc1 | inactive: 108% |
| COC(C(=O)Nc1ccc2c(c1)OCCO2)c1ccccc1 (stereo unspecified) | inactive: 87% |
| CCC(=O)Oc1ccc2c(c1)nc(C)n2CC | inactive: 76% |
| COCCn1nnnc1C(CC(C)C)N1CCN(c2cc(Cl)ccc2C)CC1 (stereo unspecified) | inactive: 78% |

| SMILES | survival |
| --- | --- |
| CCn1cc2nc(SCc3cccc(C(F)(F)F)c3)n(Cc3ccc(OC)cc3)c(=O)c2n1 | inactive: 78% |
| CC(=O)Nc1c(C)nn(-c2ccccc2)c1N1CCC(C(=O)NCc2ccc(F)cc2)CC1 | active: -1% |
| COc1cc(Cl)c(C)cc1NC(=O)Cn1c(C)c2cnn(-c3ccccc3)c(=O)c2c1C | inactive: 88% |
| CC(=O)c1ccc(NC(=O)CSc2nnc(N)s2)cc1 | inactive: 69% |
| O=C(O)CC1S/C(=N/N=C/c2ccccc2)NC1=O (stereo unspecified) | inactive: 84% |
| O=C(Nc1cccc(C(F)(F)F)c1)C1CCN(S(=O)(=O)c2cccs2)CC1 | active: 39% |
| Cc1ccc(S(=O)(=O)c2nc(-c3ccccc3F)oc2NCc2ccccc2)cc1 | inactive: 68% |
| Cc1nc(N2CCOCC2)c2c(C(=O)N3CCN(c4ccccc4)CC3)c(C)oc2n1 | active: 37% |
| CC(=O)OC(C(=O)NCc1ccc(F)cc1)c1ccccn1 (stereo unspecified) | inactive: 84% |
| Cc1cc2c(cc3c(SCC(=O)Nc4ccc(Cl)cc4F)nncn32)o1 | active: 36% |
| CCOC(=O)c1cccc(NC(=O)NC(C)c2c(-n3cccc3)sc3c2CCN(C)C3)c1 (stereo unspecified) | inactive: 119% |
| CCCNC(=O)CN1CCN(c2ccc(NC(=O)c3ccc(OC)cc3)cc2C(=O)O)CC1 | inactive: 94% |
| COc1ccc(CNC(=O)c2ccc(NC(=O)N3CCSc4ncccc43)cc2)cc1 | inactive: 84% |
| CC(C)NC(=O)c1ccccc1NC(=O)c1ccco1 | inactive: 73% |
| Cc1ccccc1C(=O)N1CCC(C(=O)Nc2ccc(F)cc2F)CC1 | inactive: 67% |
| N#CCN(CC#N)S(=O)(=O)c1ccccc1 | inactive: 58% |
| CCOc1ccc(NC(=O)CCc2c(C)nc3c(-c4ccccc4)c(C)nn3c2C)cc1 | inactive: 94% |
| Cc1ccc(CNC(=O)CSC2=Nc3ccccc3N=C(c3ccc(F)cc3)C2)cc1 | inactive: 73% |
| COCCCN1C(=O)c2oc3ccccc3c(=O)c2C12C(=O)N(C)c1ccccc12 (stereo unspecified) | inactive: 64% |
| O=C(COc1ccccc1F)Nc1ccc(OCc2cc(=O)n3ccccc3n2)cc1 | inactive: 118% |
| COc1ccc(CC(=O)N2CCc3cc(OC)c(OC)cc3C2COc2ccc3c(C)cc(=O)oc3c2)cc1OC (stereo unspecified) | inactive: 65% |
| COc1ccccc1CNC(=O)CCNS(=O)(=O)c1ccc2c(c1)oc(=O)n2C | inactive: 92% |
